Data: PubChem BioAssay AID1745853 (National Center for Advancing Translational Sciences (NCATS), 2022)
Where “and” joins values, the source holds several entries; their conditions need not be identical. Equal entries are not always repeated. The list shows a part of the results. Shown are side measurements of this screen, not its main read-out; they come without a call. Square brackets hold non-standard residues; d marks the D form. Peptide text beside a SMILES is read from it. ξ: configuration not given here. ξTyr(βOH) = NC(C(=O)O)C(O)c1ccc(O)cc1

Key:
Experiment in all cases: Primary Screen for Target Class Profiling of Small Molecule Inhibitors of Methyltransferases
[1] = target: Glycine N-methyltransferase (Homo sapiens) (UniProt Q14749); conditions: purified enzyme, MTase-Glo SAH luminescence; measured here: GNMT inhibition; at 40 µM; stronger effect = lower value
In short: (§1)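 Each enzyme was reacted with SAM and its substrate, with compounds tested once at 40 uM; SAH formed was read by MTase-Glo luminescence.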

[2] = target: Guanidinoacetate N-methyltransferase (Homo sapiens) (UniProt Q14353); conditions: purified enzyme, MTase-Glo SAH luminescence; measured here: GAMT inhibition; at 40 µM; stronger effect = lower value
In short: as §1

[3] = target: Histamine N-methyltransferase (Homo sapiens) (UniProt P50135); conditions: purified enzyme, MTase-Glo SAH luminescence; measured here: HNMT inhibition; at 40 µM; stronger effect = lower value
In short: as §1

[4] = target: Nicotinamide N-methyltransferase (Homo sapiens) (UniProt P40261); conditions: purified enzyme, MTase-Glo SAH luminescence; measured here: NNMT inhibition; at 40 µM; stronger effect = lower value
In short: as §1

[5] = target: Phenylethanolamine N-methyltransferase (Homo sapiens) (UniProt P11086); conditions: purified enzyme, MTase-Glo SAH luminescence; measured here: PNMT inhibition; at 40 µM; stronger effect = lower value
In short: as §1
% is scaled to controls: 0 for no effect and ±100 for the full control effect.

Compound | activity change, negative = inhibition [1] | activity change, negative = inhibition [2] [%] | activity change, negative = inhibition [3] | activity change, negative = inhibition [4] | activity change, negative = inhibition [5]
OC/C=C/C=C/[C@H]1Cc2cc(O)cc(O)c2O1 | -11.4% | -14.6 | 0.749% | -20.5% | -12.6%
Cc1ccc(C(=O)C(C)CN2CCCCC2)cc1 (stereo not drawn) | -3.82% | -0.015 | 2.07% | -15.3% | 3.1%
CC(C)C1NC(=O)CNC(=O)C2CCCN2C(=O)C(Cc2c[nH]c3ccccc23)NC(=O)CNC(=O)C(C(O)c2ccc(O)cc2)NC(=O)CNC1=O (stereo not drawn) (cyclo(G[ξTyr(βOH)]GWPGV); configuration not given here) | 0% | 5.86 | 11.5% | -4.38% | 5.81%
CC1=C[C@@H](CNS(C)(=O)=O)[C@H](C(C)C)C[C@H]1CC(=O)O | -7.05% | -12.7 | -5.36% | -14.5% | -13.1%
Cc1ccc(NC(=O)CSc2nnc3n(CCc4ccccc4)c(=O)c4ccccc4n23)cc1C | -0.016% | 0 | 4.22% | 0.174% | 1%
CCCCC1C(=O)N(c2ccccc2)N(c2ccccc2)C1=O | -0.506% | 12.7 | 4.07% | -3.83% | 3.3%
CCOC(=O)c1cc2n(n1)CC(C)(C(=O)NCc1ccccc1OC)N(CCc1ccccc1Cl)C2=O (stereo not drawn) | -2.59% | 0 | 2.66% | -12% | -0.877%
Cc1ccc(N2C(=O)c3cc4sccc4n3CC2(C)C(=O)NC2CCCC2)cc1C (stereo not drawn) | -4.77% | 2.07 | -4.14% | -4% | -8.58%
C=C1CCC[C@]2(C)C[C@]3(O)OC(=O)C(C)=C3C[C@@H]12 | -5.86% | -6.07 | 1.65% | -18.7% | -1.4%
NC(=O)N1CCCC(C(=O)NCCCn2nccc2C2CC2)C1 (stereo not drawn) | -1.86% | 0.817 | 1.75% | -6.83% | 13.1%
C[C@@H]1O[C@@H](O[C@H]2[C@H](O)[C@@H](O)[C@H](OC(=O)[C@]34CCC(C)(C)C[C@H]3C3=CCC5[C@@]6(C)CC[C@H](O[C@@H]7O[C@H](C(=O)O)[C@@H](O)[C@H](O)[C@H]7O)C(C)(C)C6CC[C@@]5(C)[C@]3(C)CC4)O[C@@H]2CO)[C@H](O)[C@H](O)[C@H]1O (stereo partly drawn) | 1.92% | 6.08 | 7.21% | -7.57% | 8.82%
Cc1cnc(CN(C)Cc2cn(-c3ccccc3)nn2)[nH]1 | -6.21% | -5.43 | -6.92% | -7.07% | -11%
COc1ccc(CNC(=O)CCn2ccc3cc(S(=O)(=O)N4CCCCC4)ccc32)cc1 | 3.51% | 4.11 | 9.02% | 1.44% | 3.26%
CCC1c2nccn2CCCN1C(=O)Cn1c(=O)oc2ccccc21 (stereo not drawn) | -6.79% | -10.8 | -3.39% | -8.94% | -8.78%
CCNC(=O)N1CCOc2ccc(CCC(=O)N3CCCCC3c3cccnc3)cc2C1 (stereo not drawn) | -3.34% | -2.75 | -27.9% | -10.2% | -7.17%
O=C(Nc1ccc2[nH]nc(-c3ccncc3)c2c1)[C@@H]1CCN(CC(=O)N2CCN(c3ccc(-c4ncccn4)cc3)CC2)C1 | -15.8% and -16.4% | -1.99 | -7.12% and -5.48% | -19.1% and 11.3% | -16.8% and 40.4%
CC1(C)CC[C@]2(C(=O)O[C@@H]3O[C@H](CO)[C@@H](O)[C@H](O)[C@H]3O)CC[C@]3(C)C(=CCC4[C@@]5(C)C[C@@H](O)[C@H](O)[C@](C)(C=O)C5CC[C@]43C)[C@@H]2[C@@H]1O (stereo partly drawn) | -4.42% | -2.05 | 2.55% | -15.9% | 0.647%
Cc1cccc(-c2nnn3c2nc(NCc2ccccc2)c2ccccc23)c1 | -2.83% | 5.52 | -3.69% | 1% | -3.13%
COc1ccccc1N1CCN(C(=O)CC[C@]23CC[C@](C)(O)C[C@H]2C(C)(C)C[C@@H]3NC(=O)c2cccnc2)CC1 | -3.47% | -8.04 | -11.4% | -6.28% | -3.23%
Cc1cc(C)c(C#N)c(N2CCC3(CCC(=O)N(CC(C)O)C3)CC2)n1 (stereo not drawn) | -2.07% | -1.48 | -1.66% | -0.979% | -6.5%
Nc1ncnc2c1c(I)cn2C1OC(CO)C(O)C1O (stereo not drawn) | – | -96.8 | – | -99.2% | -99.1%
CC(CCc1ccccc1)NC(=O)c1cc2n(n1)CC(C)(C(=O)NC1CCCCC1)N(C)C2=O (stereo not drawn) | -1.66% | 1.31 | -2.72% | 1.95% | -0.363%
Cc1cc2c(cc3n2CC(C)(C(=O)NC2CCCCCC2)N(c2cc(Cl)ccc2C)C3=O)o1 (stereo not drawn) | 3.49% | -1.84 | 1.14% | 3.29% | 2.98%
N=C(N)SCCN | -7.21% | 5.39 | -50.8% | -10.1% | 5.89%
O=C(c1cc(Br)cn2ccnc12)N1CCCC1 | 0.084% | -0.316 | -1.39% | -9.15% | -17.3%
O=C(NCCc1ccc(Cl)cc1)c1nc(-c2ccc(Cl)cc2Cl)c2ccccn12 | -4.7% | -5.23 | -3.17% | -8.15% | -4.53%
O=C(CNC(=O)c1cccc(-c2ccc(C(F)(F)F)cc2)c1)NCC(F)(F)F | -7.13% | -9.33 | -5.53% | -14% | -7.67%
CC1CCC(NC(=O)C2(C)Cc3ccccc3C(=O)N2Cc2ccccc2)CC1 (stereo not drawn) | -6.25% | 0 | 1.52% | 0.098% | -5.01%
CCOC(=O)c1cc2n(n1)CC(C)(C(=O)NC1CCCCC1)N(c1ccc(F)cc1F)C2=O (stereo not drawn) | -5.14% | -0.371 | -2.77% | -8.88% | -6.64%
